Test results reported in PubChem BioAssay AID686978 (National Center for Advancing Translational Sciences (NCATS), 2013).
“And” between values parts separate entries of the source, which are not always exact repeats. Identical values can stand only once. Screen size: about 420,000 compounds; about 64,000 (15%) were called active. The shares of active, inactive and inconclusive entries below differ from those in the screen. Calls come from the whole dose curve; as a rule, active = well fitted inhibition curve with a large enough effect; inconclusive = small, poorly fitted or top-dose-only effect; inactive = flat fitted curve, though single readings scatter. Where the call is inconclusive, the potency comes from a doubtful curve fit.

test: qHTS for Inhibitors of human tyrosyl-DNA phosphodiesterase 1 (TDP1): qHTS in cells in absence of CPT; conditions: DT40 Tdp1-/- hTDP1 cells, no CPT, ATP luminescence, 48 h; activity change, negative = growth inhibition: at 46.2 µM (top of the series) unless noted; note: nearly all actives have a fitted effect of over 55% in size
Outline: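 Seeded 400 DT40-hTDP1 cells/well (vehicle DMSO, no 20 nM CPT); pinned compounds; ≥48 hr at 37 °C; CellTiter-Glo luminescence as viability measure.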
% is set by controls: 0 for no effect and ±100 for the full control effect; potency is the fitted concentration of half-maximal effect; tags give direction and shape of the fitted curve.

Row | Structure (SMILES) | Potency | activity change, negative = growth inhibition
1 | Cc1ccc(-n2cc(CN(C)Cc3ncc[nH]3)c(-c3cccc(C)c3)n2)cc1 | active: 23.1 µM | 
2 | COc1ccc(OC)c(C(=O)NC2CC(C)(C)Cc3c2cnn3-c2ccccc2)c1 (stereo unspecified) | inconclusive: 25.9 µM [inhibitor, single point] | 
3 | COc1ccc(C(=O)Nc2ccc(C)c(S(=O)(=O)N3CCOCC3)c2)cc1S(=O)(=O)N1CCCC1 | inconclusive: 23.1 µM [inhibitor, single point] | 
4 | Cn1cnnc1SCC(=O)NN1C(=O)NC(C)(c2ccccc2)C1=O (stereo unspecified) | inactive | 
5 | CCc1ccc(C(=O)COC(=O)C(Cc2c[nH]c3ccccc23)NC(=O)c2ccc(Br)cc2)cc1 (stereo unspecified) | inactive | 
6 | CCn1c2ccccc2c2cc(/C=N/NC(=O)c3ccncc3)ccc21 | inconclusive: 18.4 µM [inhibitor, single point] | 
7 | O=c1c(OC2OC(CO)C(O)C(O)C2OC2OC(CO)C(O)C(O)C2OC2OC(CO)C(O)C(O)C2O)c(-c2ccc(O)c(O)c2)oc2cc(O)cc(O)c12 (stereo unspecified) | active: 20.6 µM | 
8 | CCSc1nnc(NS(=O)(=O)c2ccc(OC)cc2)s1 | inactive | 
9 | CC1CC(c2ccccc2)NS(=O)(=O)O1 (stereo unspecified) | inactive | 
10 | COC(=O)CNC(c1ccccc1)c1cc(Br)ccc1N (stereo unspecified) | inconclusive: 16.4 µM [inhibitor, single point] | 
11 | CCOc1ccc(C2CC(=O)c3c([nH]c(C(=O)OCc4ccccc4)c3C)C2)cc1 (stereo unspecified) | active: 13 µM | 
12 | Cc1nc2ccc(S(=O)(=O)N(C)CC(=O)Nc3ccc(Br)c(C)c3)cc2s1 | active: 16.4 µM | 
13 | CCCNC(=O)N1CCCC(C(=O)c2cccc(Cl)c2)C1 (stereo unspecified) | inconclusive: 7.31 µM [inhibitor, partial curve, poor fit] | 
14 | CCc1cccc(C)c1NC(=O)Cn1ccn(-c2ccc(F)cc2)c(=O)c1=O | inactive | 
15 | COc1ccc(CCNC(=O)C2CCC(=O)N(C3CC3)C2)c(OC)c1 (stereo unspecified) | inactive | 
16 | Cc1cccc(C(=O)N[C@H](C(=O)Nc2nc3ccccc3[nH]2)C(C)C)c1 | active: 3.66 µM | 
17 | Cc1ccc2cc(CCNC(=O)c3ccc(S(=O)(=O)N4CCOCC4)cc3)c(=O)[nH]c2c1C | inconclusive: 20.6 µM [inhibitor, single point] | 
18 | COc1ccc(C(N)=S)cc1 | inactive | 
19 | COC(=O)[C@@]12CCCCN1[C@H](c1ccc(-c3ccc4c(c3)OCO4)cc1)[C@H]1C(=O)N(C)C(=O)[C@H]12 | active: 23.1 µM | 
20 | COc1cc(/C(C)=N/NC(=O)c2nnn(-c3nonc3N)c2-c2cccs2)ccc1O | inconclusive: 25.9 µM [inhibitor, partial curve] | 
21 | COc1cccc(CN2Cc3cccc4c3[C@H](C=CC4)CC2=O)c1 | inconclusive: 28.2 µM [inhibitor, single point] | 
22 | O=C(NCc1ccco1)c1cc([N+](=O)[O-])ccc1N1CCCCC1 | inconclusive: 23.1 µM [inhibitor, single point] | 
23 | COc1ccc(Br)cc1C1=CC(=O)C[C@H](c2ccc(F)cc2)C1 | inconclusive: 29.1 µM [inhibitor, single point] | 
24 | C[C@H](CO)N1C[C@H](C)[C@@H](CN(C)S(=O)(=O)c2cccs2)Oc2c(NS(=O)(=O)c3ccc(F)cc3)cccc2C1=O | inconclusive: 29.1 µM [inhibitor, single point] | 

Row | Structure (SMILES) | Potency | activity change, negative = growth inhibition
25 | COc1ccc2nc(C)cc(Sc3nc4ccccc4s3)c2c1 | active: 9.2 µM | 
26 | CC1CCN(c2nc3c(c(=O)[nH]c(=O)n3C)n2CCSc2ncccn2)CC1 | inconclusive: 11.6 µM [inhibitor, partial curve] | 
27 | Cc1cccc(N2CCN(CC(=O)Nc3ccc(S(=O)(=O)N4CCOCC4)cc3)CC2)c1C | active: 9.2 µM | 
28 | CCc1ccc(N2C(=O)C(Cl)=C(N3CCCCCC3)C2=O)cc1 | inactive | 
29 | CC(C)[C@@H](COc1ccccc1)N1CCN(Cc2ccccc2)CCC1=O | inconclusive: 35.5 µM [inhibitor, single point] and inconclusive: 9.2 µM [inhibitor, partial curve, poor fit] | 
30 | CCc1nc2ccc(C(=O)NCc3ccc4c(c3)OCO4)cn2c1N(CCC(C)C)CCN(C)C | inconclusive: 23.1 µM [inhibitor, single point] | 
31 | Oc1ccccc1C1C=C(c2ccc3c(c2)OCO3)NC(c2ccc(Br)cc2)N1 (stereo unspecified) | active: 11.2 µM | 
32 | Cc1ccc(C(c2nnnn2CS(=O)(=O)c2ccc(C)cc2)N2CCN(c3ncccn3)CC2)cc1 (stereo unspecified) | inconclusive: 20.6 µM [inhibitor, single point] | 
33 | Cc1ccccc1-c1nn2c(=O)cc(CN3CCN(C(=O)c4ccc(C(C)(C)C)cc4)CC3)nc2s1 | active: 7.31 µM | 
34 | Cn1ccc2c(-c3ccc4c(c3)OCCO4)cc3c(c21)C1CCC3O1 (stereo unspecified) | inactive | 
35 | COc1ccc(C(=O)NNC(=S)NC(=O)c2ccc(Br)o2)cc1OC | inconclusive: 29.1 µM [inhibitor, single point] | 
36 | N#CC(C#N)=C/C=C(\Nc1ccc(Cl)cc1)c1ccc(Cl)cc1 | inconclusive: 18.4 µM [inhibitor, partial curve, poor fit] | 
37 | CC(=O)NNC(=O)c1csc(Cc2c(Cl)sc3ccc(Cl)cc23)n1 | inconclusive: 16.4 µM [inhibitor, single point] | 
38 | O=C(NNC(=O)c1cc(-c2ccccc2)nc2ccccc12)c1csc(N2CCOCC2)n1 | inconclusive: 29.1 µM [inhibitor, single point] | 
39 | CCc1ccc(-c2csc(NC(=O)C3CCCO3)c2C(=O)OC(C)C)cc1 (stereo unspecified) | inconclusive: 16.4 µM [inhibitor, single point] | 
40 | O=C1Cc2ccccc2Sc2c(OCCN3CCCCC3)cccc21 | inconclusive: 29.1 µM [inhibitor, single point] | 
41 | O=C(NCCCc1ccccc1)c1cc(COc2ccc(F)cc2Cl)on1 | inconclusive: 32.6 µM [inhibitor, single point] | 
42 | Oc1c(Cl)cc(Cl)cc1CNc1nccs1 | inactive | 
43 | CC1(C(=O)Nc2cccc(Oc3ccccc3)c2)CCN1Cc1cccc2c1OCO2 (stereo unspecified) | inconclusive: 23.1 µM [inhibitor, single point] | 
44 | Cc1ccc(S(=O)(=O)N2C[C@@H]3CCCC[C@@H]3[C@@H](C)[C@H]2c2cn(Cc3ccccc3)c3ccc(F)cc23)cc1 | active: 6.51 µM | 
45 | O=C(Nc1cc(Cl)ccc1-n1cncn1)c1cccc(S(=O)(=O)N2CCOCC2)c1 | inactive | 
46 | CC(C)Sc1nnc(CNC(=O)C23CC4CC(CC(C4)C2)C3)n1Cc1ccccc1 | inconclusive: 29.1 µM [inhibitor, single point] | 
47 | COc1ccc(S(=O)(=O)N2CCC(n3c(C(F)(F)F)nc4cccnc43)CC2)cc1OC | inconclusive: 16.4 µM [inhibitor, single point] | 
48 | COCc1ccc(CN2CCCCC2C(=O)Nc2ccc(Oc3ccccc3)nc2)o1 (stereo unspecified) | inconclusive: 18.4 µM [inhibitor, single point] | 

Row | Structure (SMILES) | Potency | activity change, negative = growth inhibition
49 | Cc1nc2ncccn2c1-c1csc(Nc2cccc(C(=O)O)c2)n1 | inactive | 
50 | Cc1cccc(OCC(=O)Nc2ccc3oc(=O)ccc3c2)c1 | inconclusive: 10.3 µM [inhibitor, partial curve] | 
51 | O=C(CCc1cn2ccccc2n1)NC1CCCc2c1cnn2-c1ccccc1F (stereo unspecified) | inactive | 
52 | COc1ccc(CCN(CC(=O)NC(C)(C)C)C(=O)Cn2nnc(-c3ccc(C)o3)n2)cc1OC | inactive | 
53 | CCCCCCOC(=O)C(C#N)c1nc2ccccc2nc1N1CCN(C)CC1 (stereo unspecified) | inconclusive: 29.1 µM [inhibitor, single point] | 
54 | CCOc1cc(CNCc2cc(OC)cc(OC)c2)ccc1OC | active: 8.2 µM | 
55 | COc1ccc(C(C)=O)cc1COC(=O)c1ccc(S(=O)(=O)N(C)C)cc1 | inactive | 
56 | CCCCn1nnnc1C(c1ccccc1)N1CCN(c2c(Cl)cncc2Cl)CC1 (stereo unspecified) | active: 16.4 µM | 
57 | Cc1ccccc1Cn1cc(NC(=O)CCCn2nc([N+](=O)[O-])cc2C)cn1 | inactive | 
58 | CCOC(=O)c1nnc2cc(-c3ccccc3)nn2c1C | inconclusive: 16.4 µM [inhibitor, partial curve, poor fit] | 
59 | Cc1ccc(N(C)C(=O)C2CCN(S(=O)(=O)c3ccc4c(c3)CCCN4C(=O)C3CCC3)CC2)cc1 | active: 16.4 µM | 
60 | O=S(=O)(NCC(c1cccnc1)N1CCc2ccccc2C1)c1ccccc1 (stereo unspecified) | inactive | 
61 | CC1CCN(S(=O)(=O)c2ccc3c(c2)N(CC(=O)NCCCN(Cc2ccccc2)C(C)C)C(=O)CO3)CC1 | inconclusive: 29.1 µM [inhibitor, single point] | 
62 | Cc1nc2c(OCCC3CCCCC3)cccn2c1N(C)C(=O)CCC1CCCC1 | active: 16.4 µM | 
63 | CCOc1ccccc1-n1cc2c(c1-c1ccc(OC)cc1)c(=O)n(C)c(=O)n2C | inconclusive: 29.1 µM [inhibitor, single point] | 
64 | O=C(Nc1cc(N2CCCCC2)ncn1)c1ccccc1 | inconclusive: 25.9 µM [inhibitor, single point] | 
65 | Cc1[nH]n(-c2ccccc2)c(=O)c1/C=N/O | inactive | 
66 | CSc1ccccc1OCc1cc(C(=O)NCCc2nc(C)cc(C)n2)no1 | inconclusive: 16.4 µM [inhibitor, partial curve] | 
67 | O=C(c1ccc2c(c1)OCCO2)C1CCN(S(=O)(=O)c2ccccc2F)CC1 |  | inconclusive: -34% [inhibitor]
68 | CCCCCCCCN1[C@@H](CC(=O)OCC)c2ccc(C(F)(F)F)cc2S1(=O)=O | active: 12.6 µM and active: 25.9 µM | 
69 | O=C1CC(c2ccccc2)Cc2[nH]c(=O)c(C(=O)Nc3cccc(Cl)c3)cc21 (stereo unspecified) | inactive | 
70 | COC(=O)c1ccc(NC(=O)CN2CCN(c3ccc(Cl)cc3)CC2)cc1 | inconclusive: 29.1 µM [inhibitor, single point] | inconclusive: -31.5% [inhibitor]
